In paper PMC4336329 (PLoS ONE, 2015):
In all, about 310,000 compounds went through this assay and about 14,000 (4.5%) showed an effect of 50% or more. Effects have a minus sign here. The list shows a part of the results.

Target: human ether-à-go-go-related gene (hERG) potassium channel (human, UniProt Q12809)
Assay: primary screen, population patch clamp on CHO cells stably expressing hERG
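Further: peak tail current of the secondary pulse compared with the same well before compound.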

Chain of human ether-à-go-go-related gene (hERG) potassium channel (Q12809 whole entry, looked up): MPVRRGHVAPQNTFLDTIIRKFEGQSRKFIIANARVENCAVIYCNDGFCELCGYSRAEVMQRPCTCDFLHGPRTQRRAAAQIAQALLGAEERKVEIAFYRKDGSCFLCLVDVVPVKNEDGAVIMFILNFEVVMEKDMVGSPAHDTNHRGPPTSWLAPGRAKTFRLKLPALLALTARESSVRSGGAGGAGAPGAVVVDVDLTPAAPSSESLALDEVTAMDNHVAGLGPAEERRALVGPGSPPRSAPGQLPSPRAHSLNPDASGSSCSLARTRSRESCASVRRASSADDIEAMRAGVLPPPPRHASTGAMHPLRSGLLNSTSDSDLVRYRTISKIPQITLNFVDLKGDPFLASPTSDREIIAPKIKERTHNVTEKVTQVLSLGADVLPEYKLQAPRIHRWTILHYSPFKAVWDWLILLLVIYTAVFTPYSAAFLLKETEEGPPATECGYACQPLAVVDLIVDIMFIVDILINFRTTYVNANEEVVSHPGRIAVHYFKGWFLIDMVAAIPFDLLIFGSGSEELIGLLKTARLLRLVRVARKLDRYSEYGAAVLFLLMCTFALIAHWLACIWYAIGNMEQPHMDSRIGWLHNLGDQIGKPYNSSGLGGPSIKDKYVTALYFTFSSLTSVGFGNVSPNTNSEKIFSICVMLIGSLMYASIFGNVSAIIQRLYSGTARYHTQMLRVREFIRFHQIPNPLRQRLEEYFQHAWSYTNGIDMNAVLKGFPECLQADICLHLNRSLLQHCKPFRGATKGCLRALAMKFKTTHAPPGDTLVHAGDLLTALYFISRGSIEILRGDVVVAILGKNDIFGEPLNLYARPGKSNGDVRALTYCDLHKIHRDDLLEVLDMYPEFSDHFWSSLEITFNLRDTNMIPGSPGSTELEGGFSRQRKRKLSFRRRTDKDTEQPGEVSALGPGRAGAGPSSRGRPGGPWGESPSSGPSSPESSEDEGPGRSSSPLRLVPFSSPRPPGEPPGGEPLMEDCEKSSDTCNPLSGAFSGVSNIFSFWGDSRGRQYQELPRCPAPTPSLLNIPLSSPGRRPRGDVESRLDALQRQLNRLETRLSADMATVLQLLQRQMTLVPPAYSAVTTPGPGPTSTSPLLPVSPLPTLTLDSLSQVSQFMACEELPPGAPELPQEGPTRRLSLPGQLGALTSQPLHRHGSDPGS

First: CCOC(=O)c1ccccc1NC(=O)c1ccc(NS(C)(=O)=O)cc1
Second: CCOC(=O)c1ccc(NC(=S)NCc2ccc(S(N)(=O)=O)cc2)cc1
The “hERG current change (%, negative = inhibition) at 10uM” value of the first is lower: -54.7% for the first, 16.5% for the second.

First: O=C(CNC(=O)c1ccccc1F)OC(C(=O)Nc1cc(C(F)(F)F)ccc1Cl)c1ccccc1 (stereo not shown)
Second: O=C(NC(=S)Nc1cc(C(F)(F)F)ccc1Cl)c1ccccc1
The “hERG current change (%, negative = inhibition) at 10uM” value of the first is lower: 5.27% for the first, 10.5% for the second.

Going from `Cc1ccc(Nc2ccc(S(=O)(=O)N3CCOCC3)cc2[N+](=O)[O-])cc1C` to `O=C(Nc1ccc2c(c1)OCO2)c1ccc(S(=O)(=O)N2CCCC2)cc1`, the “hERG current change (%, negative = inhibition) at 10uM” value rises from -6.97% to 22.1%.

Going from `COc1ccc(CCNC(=O)c2nnn(-c3ccccc3OC)c2N)cc1OC` to `COc1ccc(C(=O)NC2CCCc3c2cnn3-c2ccc(C)c(C)c2)c(OC)c1OC` (stereo not shown), the “hERG current change (%, negative = inhibition) at 10uM” value falls from -1.21% to -7.05%.

Compared with `CC1CCN(S(=O)(=O)c2ccc(NC(=O)CN3CCCC3)cc2)CC1.O=C(O)C(=O)O`, `CS(=O)(=O)N(CC(=O)Nc1ccccc1C(=O)N1CCCC1)c1ccc2c(c1)OCO2` is higher in “hERG current change (%, negative = inhibition) at 10uM” value: -8.37% for the first, 26.3% for the second.

Compared with `CCC(=O)NCc1nc2ccccc2n1Cc1ccccc1F`, `COc1ccccc1CNC(=O)CSc1ccc(Br)cc1` is higher in “hERG current change (%, negative = inhibition) at 10uM” value: -6.97% for the first, -3.01% for the second.

Compared with `Cc1ccc(/C=N/NC(=O)C2CC(=O)N(c3ccccc3)C2)s1` (stereo not shown), `Cc1ccc(N2CC(C(N)=O)CC2=O)cc1` (stereo not shown) is higher in “hERG current change (%, negative = inhibition) at 10uM” value: -23.5% for the first, 4.9% for the second.

Going from `CC1CCN(C(=O)CSc2nnc(CSc3ncccn3)n2C)CC1` to `O=C(CSc1ncccc1-c1nc2ccccc2[nH]1)N1CCCCC1`, the “hERG current change (%, negative = inhibition) at 10uM” value falls from 12.6% to -16.3%.

First: Cc1cc(C=O)c(C)n1-c1cc(C(F)(F)F)ccc1N1CCOCC1
Second: COc1ccc(-n2c(C)cc(C(=O)C[N+]34CCN(CC3)CC4)c2C)cc1.[Cl-]
The “hERG current change (%, negative = inhibition) at 10uM” value of the first is lower: -5.79% for the first, 21.6% for the second.

Compared with `O=C(CSc1nc2ccccc2[nH]1)NC1CCCC1`, `O=C(CSc1c[nH]c2ccccc12)NCC1CCCO1` (stereo not shown) is lower in “hERG current change (%, negative = inhibition) at 10uM” value: 15.9% for the first, 11.7% for the second.

Compared with `COc1ccc(C(=O)N(CN2CCCC2=O)c2cc(C)on2)cc1OC`, `COc1ccc(Cl)cc1N(CC(=O)N1CCCCCC1)S(C)(=O)=O` is higher in “hERG current change (%, negative = inhibition) at 10uM” value: -12% for the first, 2.3% for the second.

Going from `O=C(CNC(=O)c1sc2ccccc2c1Cl)NCc1cccnc1` to `O=C(Nc1nnc(Cc2ccc(Cl)cc2)s1)c1cccnc1`, the “hERG current change (%, negative = inhibition) at 10uM” value rises from 4.31% to 13.9%.

Going from `O=C1CN(C(=O)CSc2nnnn2-c2ccc(Cl)cc2)c2ccccc2N1` to `COc1ccccc1NC(=O)CN1CC(=O)Nc2ccccc21`, the “hERG current change (%, negative = inhibition) at 10uM” value rises from -32.9% to 20.5%.

First: COc1cc(C)c(C(=O)Oc2cc(C)c(C(=O)O)c(O)c2C)c(O)c1C(=O)O
Second: Cc1cc2oc(C(=O)Nc3nonc3C)c(C)c2cc1Cl
The “hERG current change (%, negative = inhibition) at 10uM” value of the first is lower: 23.2% for the first, 24.6% for the second.

First: CCOCCn1c(SCc2cccc(C)c2)nc2c1c(=O)[nH]c(=O)n2C
Second: CCCCNC(=O)CC1N=C2c3ccccc3N=C(SCC(=O)Nc3cccc(C)c3)N2C1=O (stereo not shown)
The “hERG current change (%, negative = inhibition) at 10uM” value of the first is higher: -45.1% for the first, -52.6% for the second.

Compared with `O=Cc1ccc(Cl)c(Cl)c1`, `COC(=O)CSc1nc2ccc(C)cc2[nH]1` is higher in “hERG current change (%, negative = inhibition) at 10uM” value: 10.9% for the first, 15.1% for the second.

First: CSc1ccccc1OCc1cc(C(=O)N(C)Cc2cnccn2)no1
Second: COc1ccc(O)c(C(=O)c2cnn(-c3ccccn3)c2)c1
The “hERG current change (%, negative = inhibition) at 10uM” value of the first is higher: 1.87% for the first, -6.63% for the second.

Compared with `Cc1ccccc1NC(=S)N(C)C1(c2ccccc2Cl)CCCCC1=O` (stereo not shown), `Cc1nc2c(cc1NC(=O)c1ccccc1)nc(C)n2Cc1ccccc1` is higher in “hERG current change (%, negative = inhibition) at 10uM” value: -4.89% for the first, 4.1% for the second.

Compared with `Cc1ccc(Cn2cccc2/C=C2/C(=N)N3C=CSC3=NC2=O)cc1`, `Cc1ccc(CNC(=O)CNS(=O)(=O)c2cccc3nsnc23)cc1` is lower in “hERG current change (%, negative = inhibition) at 10uM” value: -2.8% for the first, -7.87% for the second.

Compared with `CCC(=O)/C=C1\Sc2ccc(OC)cc2N1CC`, `CCOC(=O)c1sc(=S)n(-c2ccccc2Cl)c1SC` is lower in “hERG current change (%, negative = inhibition) at 10uM” value: -2.14% for the first, -33% for the second.

Going from `CCc1cccc2c(C(=O)CN3C(=O)C(=O)N(C4CCCC4)C3=O)c[nH]c12` to `Cc1cc(Cl)ccc1NC(=O)CN1C(=O)C(=O)N(C2CCCC2)C1=O`, the “hERG current change (%, negative = inhibition) at 10uM” value falls from 5.55% to -5%.

Compared with `CC(C)CN(CC(C)C)S(=O)(=O)N1CCC(C(=O)NCc2ccc3c(c2)OCO3)CC1`, `CCOC(=O)C1=C(CN2CCCCCC2)NC(=O)NC1c1ccc2c(c1)OCO2` (stereo not shown) is lower in “hERG current change (%, negative = inhibition) at 10uM” value: 0.114% for the first, -48.2% for the second.

First: CC(C)(Oc1ccc(Cl)cc1)C(=O)NCC1CCCO1 (stereo not shown)
Second: Cc1cccc(OCC(=O)OCC(=O)NCC2CCCO2)c1C (stereo not shown)
The “hERG current change (%, negative = inhibition) at 10uM” value of the first is lower: 0.56% for the first, 9.72% for the second.

First: CSc1ccc(/C=C(/Sc2nnc(-c3ccccc3)o2)C(=O)O)cc1
Second: O=C(OCC1CC(c2ccccc2)=NO1)c1ccc(Cl)cc1 (stereo not shown)
The “hERG current change (%, negative = inhibition) at 10uM” value of the first is higher: 24.2% for the first, 18.6% for the second.

Going from `COc1cc(/C=C2\SC(=Nc3ccc(F)cc3)N(c3ccc(F)cc3)C2=O)ccc1OCC(=O)O` to `Cc1ccc(S(=O)(=O)Nc2ccc(-n3c(C)nc4ccccc4c3=O)cc2)cc1`, the “hERG current change (%, negative = inhibition) at 10uM” value falls from 10.4% to -49.4%.

Going from `Cc1ccc2cc(CCNS(=O)(=O)c3ccc(F)cc3)c(=O)[nH]c2c1C` to `Cc1ccc(C)c(NC(=O)c2cc3c([nH]c4ccccc43)c(C)n2)c1`, the “hERG current change (%, negative = inhibition) at 10uM” value falls from 10.9% to 5.7%.

Compared with `COc1ccccc1C(C)NCC(=O)NC(=O)NCc1ccco1` (stereo not shown), `COC(=O)CNC(c1ccccc1)c1cc(Br)ccc1NS(=O)(=O)c1ccc(C)cc1` (stereo not shown) is higher in “hERG current change (%, negative = inhibition) at 10uM” value: -3.16% for the first, 2.43% for the second.

Compared with `O=C(/C=C/c1cccs1)NC1CC1`, `Cc1ccc2c(c1)N(CC(=O)NCc1cccs1)C(=O)C(C)O2` (stereo not shown) is lower in “hERG current change (%, negative = inhibition) at 10uM” value: 44.1% for the first, 14.1% for the second.

Compared with `CC1(C)C[C@@H]2C[C@@](C)(CN2C(=O)c2ccccc2)C1`, `CCOC(=O)c1cc(S(=O)(=O)N2CCN(Cc3ccccc3)CC2)cn1C` is lower in “hERG current change (%, negative = inhibition) at 10uM” value: 11.3% for the first, -17.7% for the second.

First: O=C(Cc1n[nH]c(=O)c2ccccc12)NC(c1ccccc1)c1ccccc1
Second: O=C(COC(=O)C1=COCCO1)Nc1ccc(Oc2ccccc2)cc1
The “hERG current change (%, negative = inhibition) at 10uM” value of the first is higher: 6.6% for the first, -27.7% for the second.

Going from `CCOC(=O)c1c(NC(=O)CNCC(O)CO)sc(C)c1C` (stereo not shown) to `C=CCc1cc(C)ccc1OCCCC(C(=O)OCC)C(=O)OCC`, the “hERG current change (%, negative = inhibition) at 10uM” value rises from -7.91% to -0.439%.

First: COCCNCCCOc1ccc(Cl)cc1Br.O=C(O)C(=O)O
Second: O=C(O)CCCC(=O)Nc1cccc(C(F)(F)F)c1
The “hERG current change (%, negative = inhibition) at 10uM” value of the first is lower: -42% for the first, 0.293% for the second.

Compared with `CC(C)(C)OC(=O)N[C@@H](COCc1ccccc1)C(=O)N[C@@H](CO)[C@H](O)[C@@H]1C[C@@H]1C(=O)NC1CC1`, `COC(C[C@@H](O)C[C@H](O)[C@H](C)OCc1ccccc1)OC` is lower in “hERG current change (%, negative = inhibition) at 10uM” value: 16% for the first, 13.7% for the second.

Compared with `O=C(/C=C/c1ccc(F)cc1)c1ccccc1Br`, `CC(=O)Nc1cccc(C(=O)/C=C/c2ccc(N(C)C)cc2)c1` is higher in “hERG current change (%, negative = inhibition) at 10uM” value: -17.4% for the first, 3.1% for the second.

Compared with `CC(=O)N/C(=C\c1ccc(F)cc1)C(=O)OC(C)C`, `COC(=O)c1ccc(/C=N/NC(=O)CC(=O)NC(C)C)cc1` is higher in “hERG current change (%, negative = inhibition) at 10uM” value: 0.32% for the first, 1.63% for the second.

Going from `COc1cccc2c1C(=O)O/C2=C/c1ccc2c(c1)OCO2` to `COc1ccccc1Cc1nc(-c2ccc(Br)o2)no1`, the “hERG current change (%, negative = inhibition) at 10uM” value falls from 9.22% to -0.174%.

Going from `C=CCOC(=O)C1=C[C@@H](c2coc3ccccc3c2=O)C[C@@H](OCc2ccc(CO)cc2)O1` to `O=C(C1=C[C@H](c2ccccc2)C[C@H](OCCCCO)O1)N1CCOCC1`, the “hERG current change (%, negative = inhibition) at 10uM” value rises from -40.9% to -6.4%.

First: COC(=O)c1ccc(CO/N=C/c2ccc(OC)cc2)o1
Second: COc1ccc(C(=O)Nc2cccc(C(=O)N3CCN(C)CC3)c2)cc1
The “hERG current change (%, negative = inhibition) at 10uM” value of the first is lower: -13.4% for the first, -5.53% for the second.

Going from `COc1cccc(NC(=S)/C(=C(\[O-])c2cc(C)n(-c3ccccc3F)c2C)[n+]2ccc(N(C)C)cc2)c1` to `CCN(CC)CCNCC(=O)Nc1ccc(Oc2ccccc2)cc1`, the “hERG current change (%, negative = inhibition) at 10uM” value falls from 12.4% to -70.5%.

Going from `COC(=O)[C@]1(C)CCC[C@@]2(C)C3CC[C@]4(OC(C)=O)C[C@@]3(CCC21)CC4=NO` (stereo partly shown) to `CCc1nc(N2CCN(C(C)=O)CC2)c2c3c(sc2n1)CC(C(C)(C)C)CC3` (stereo not shown), the “hERG current change (%, negative = inhibition) at 10uM” value falls from -8.17% to -25.3%.

Going from `NC(=S)NNc1cccc2cccnc12` to `Cc1cc(N)n2ncc(-c3cccc(Br)c3)c2n1`, the “hERG current change (%, negative = inhibition) at 10uM” value falls from 28.8% to -2.75%.

Compared with `CCS(=O)(=O)NCCc1csc(C)n1`, `COC(=O)CCC(=O)CN.Cl` is higher in “hERG current change (%, negative = inhibition) at 10uM” value: 11.2% for the first, 13.5% for the second.

Compared with `Cc1cc(N2CCCCCC2)nc(-c2ccccc2O)n1`, `O=C(CN1CCN(c2ccccc2F)CC1)Nc1ccccc1F` is lower in “hERG current change (%, negative = inhibition) at 10uM” value: 3.03% for the first, -1.86% for the second.

Compared with `CN1C(=O)CC(C(=O)O)SC1=Nc1cc(Cl)cc(Cl)c1` (stereo not shown), `CCOc1ccccc1N(C(=O)Nc1ccc(Cl)cc1)C1=NC(C)CS1` (stereo not shown) is higher in “hERG current change (%, negative = inhibition) at 10uM” value: 6.2% for the first, 8.88% for the second.

Compared with `CN(C)/C=N/c1nc2nccc(-c3ccc(Cl)cc3)n2n1`, `Cc1nccc(-c2ccc(-n3c(C)ccc3C)cc2)n1` is lower in “hERG current change (%, negative = inhibition) at 10uM” value: 16.4% for the first, -6.29% for the second.

With `CC(=O)Nc1c(NC(C)(C)C)c2ccccc2oc1=O` the “hERG current change (%, negative = inhibition) at 10uM” value was 33.9%.
